In the supplement of paper PMC10338343:
± gives the standard deviation. This is a selection; strong and weak results do not stand in their true shares.

What follows are sequences tested on MIWI (PIWIL1) piRISC loaded with piRNA #1 (30 nt) (assay: pre-steady-state target cleavage rate (min^-1); MIWI and MILI are mouse PIWI proteins and EfPiwi is from a freshwater sponge; tags in brackets are library labels; higher = faster piRNA-guided slicing of the target). Conditions: guide: piRNA #1 5'p-UGAGGUAGUAGGUUGUAUAGUAUCCAGAGG; auxiliary factor: 500 nM mouse GTSF1.
Outline: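 The pre-steady-state cleavage rate was derived from a burst-and-steady-state fit of Cleave-'n-Seq data. For these assays, 1 nM active affinity-purified piRISC loaded with a single synthetic guide was mixed with […] a transcribed, DNA-blocked target RNA library in HEPES–potassium acetate buffer at 33 °C, with or without 500 nM GTSF1 partner protein, for 0–8 or 0–960 min. Sequencing counts of uncleaved targets were normalised to depth and to weakly complementary targets, and k3 was capped at 0.0001 min^-1 after three trials were pooled.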
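Note: 1 nM active piRISC with 0.1 nM target library at 33 °C single turnover.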

Row | Sequence | pre-steady-state target cleavage rate
1 | CCUCUGGAUUACUAUACAACCUACUACCUCA | 1.9 ± 0.12
2 | GGAGACCUAUCUAGUACAACCUACUACCUCA | 0.0981 ± 0.017
3 | GGUCUGGUAUCUAUACAACCUACUACCUCA | 1.73 ± 0.11
4 | GCUCUGGAUAGUAUAGAACCUACUACCUCA | 0.714 ± 0.063
5 | GGAGACCUAACUAUAGAACCUACUACCACA | 0.185 ± 0.038
6 | GGAGACCAUACUAUAGCAACCUACUACCUCA | 0.383 ± 0.06
7 | GGAGUGGAUACUAUACAAGCUACUAGCUCA | 0.173 ± 0.025
8 | GGAGACCUUACUAUACAAGCUACUACCUGA | 0.5 ± 0.029
9 | CCUCUGGAUACUAUACAUGGUACUACCUCA | 0.0547 ± 0.0094
10 | GGAGACGUUACUAUACAACGUACUACCUCA | 0.664 ± 0.042
11 | CGUCUGGAUACUAAACAACCUACUACCUCA | 1.82 ± 0.11
12 | GGAGUGGAUACUAUACAACCUACUUACCUCA | 1.11 ± 0.072
13 | CCUCUGGAUAGUAUACAACCUUCUACCUCA | 0.553 ± 0.038
14 | GGAGUGGAUAGUAUACAACGUACUACCUCA | 0.2 ± 0.025
15 | GGAGACCUAUGAUAUGUACCUACUACCCA | < 0.0001
16 | GGAGACCAUACUAUAGAACCUUCUACCUCA | 0.134 ± 0.023
17 | GGACUGGAAACAAUACAACCUACUACCUCA | 0.328 ± 0.048
18 | GGAGACCUAUCUAUACAACCUACUACCACA | 0.868 ± 0.082
19 | GGAGACCUUACUAUACUACCUACUACCUCA | 0.613 ± 0.045
20 | CCUCUGGAAACUUUACAACCUACUACCUCA | 1.88 ± 0.12

Row | Sequence | pre-steady-state target cleavage rate
21 | GGAGACCUUACUAUAACAACCUACUACCUCA | 0.621 ± 0.07
22 | GGAGACGAUACUAUACAACCUACUUCCACA | 0.237 ± 0.052
23 | GGAGACGAUACAAUAGAACCUACUACCUCA | 0.99 ± 0.062
24 | GGAGUGCAUACUAUACAACCUACUACCUCA | 1.66 ± 0.1
25 | GGAGUGGAUACUAUUCAACGUACUACCUCA | 0.553 ± 0.04
26 | GGAGACCUAACUAUACAACCAACUACCUGA | 0.00607 ± 0.0034
27 | CCUCUGGAUACUAUACAACCUCACUACCUCA | 0.0086 ± 0.0033
28 | GGUCUCGAUACUAUACAACCUACUACCUCA | 1.83 ± 0.12
29 | GGAGACCAUACUAUACAACCUAGUACGUCA | 0.0791 ± 0.018
30 | GGAGAGGAUACUAUACAACCUUGUACCUCA | 0.0562 ± 0.01
31 | GGAGAGGCAUACUAUACAACCUACUACCUCA | 1.07 ± 0.052
32 | GGAGACCUUACUAUACAACCUACUACCUCC [g2:g22:cont:t1C] | 1.25 ± 0.072
33 | GGAGUGGAUAUAUACAACCUACUACCUCA | 1.28 ± 0.072
34 | GGAGACCUUACUAUACAUGGUACUACCUCA | 0.00452 ± 0.0025
35 | CCACUGCAUACUAUACAACCUACUACCUCA | 1.87 ± 0.11
36 | GGAGACCUAACUAUACGACCUACUACCUCA | 0.358 ± 0.045
37 | GGAGUGGAUACUAUAGAACGUACUACCUCA | 0.371 ± 0.037
38 | GGAGAGGAUACAAUACAACCUACUAGCUCA | 0.374 ± 0.041
39 | GGAGACCUAUCUAUACAACCUCCUACCUCA | 0.391 ± 0.028
